# Laboratory results as given in the RNAGym collection of RNA variant scans (doi:10.7554/elife.90254).
# Read counts are not given, so values of variants with three or more changes are uncertain.
# B1: LINE1-mini (parent)
# chain: GGCAGAGCUCAACACAGCGUGGCAAAGUGGCUGUGGCUAGACUGCC
# Variants of: B1
# Assay: self-cleavage, relative activity (ratio to wild type); higher = more cleavage; in vitro, sequencing; the parent is a self-cleaving ribozyme
row,Variant,self-cleavage
1,GGCAGCGCGCAACACAGCGUGGCAAAGCGGCUGUGGCUAGACUGCC [A6C U9G U28C],0.04
2,GGCAGGGGUCAAAAUAGCGUGGGAAAUGGGCUGUGUCUAGACUGAC [A6G C8G C13A C15U C23G G27U U28G G36U C45A],0.01
3,GGCAGGGCUCAACGCAGCGUGGCAAAAGGGCUGAGGCUAGACUGCC [A6G A14G G27A U28G U34A],0
4,GGCAGGGCUCACCCCAGCGUGGCAAAGUGGCUGUGGCUAGAUUGCC [A6G A12C A14C C42U],0.03
5,GGCAGGGAUCAACACAGCGUGGCAAAGUGGCUGUGGAUACACUGCC [A6G C8A C37A G40C],0.01
6,GGCAGGGCUCUACACAGGGUGGCAAAGUGGCUGUGGCUAGACUGCC [A6G A11U C18G],0.02
7,GGCAGGGCUCAACACAGCGUGGCAACGUGGCUGAGGCUAGACUGCC [A6G A26C U34A],0.04
8,GGCAGGGCUCAGUACAGCGGGGCAAGGUGGCUGUGCCUAGACUGCC [A6G A12G C13U U20G A26G G36C],0
9,GGCAGGGCUCAUCACAGCGUGGCAAAGUGGCUGUGGCUAGACUCCA [A6G A12U G44C C46A],0.02
10,GGCAGGGCUCGACACAGCGUGGCAUAGUGGCUGUGGCUAGACUGUC [A6G A11G A25U C45U],0
11,GGCAGGGCUCAACACAGCGUGGCAAAGUGGCUGUGGCUUUACUGCC [A6G A39U G40U],0.15
12,GGCAGGGGUCAACACAGCGUGGGAAAGUUGCUGUGGCUAGACUUCC [A6G C8G C23G G29U G44U],0
13,GGCAGCGCUCAACACAGCGUGGCAAAGUGGCCGUGGCUUGAACACC [A6C U32C A39U C42A U43C G44A],0
14,GGCAGGGGUCAACACAGGGUGGCAAAGUACCUGUGGCUAGACUGCC [A6G C8G C18G G29A G30C],0.65
15,GGCAGGGGUAAUCACAGCGUGGAGAAGUGGCUGUGGUUAGACUGCC [A6G C8G C10A A12U C23A A24G C37U],0.01
16,GGCAGCGCUCAACACAGCGUGGCAAAGUGGCAAUUGCUAGACUGCC [A6C U32A G33A G35U],0.03
17,GGCAGCGCUCAACACAGCGUGGCAAAGUGGCUGCAGCUAGACUGCC [A6C U34C G35A],0.09
18,GGCAGGGCUCAACGCAGCGUGGCAAAGCGGCUAUGGCUAGACUUCC [A6G A14G U28C G33A G44U],0.11
19,GGCAGGGAUCAACUCAGCGUGGCAAAGUGGCUGUGGCUCGACUGCC [A6G C8A A14U A39C],0.06

row,Variant,self-cleavage
1,GGCAGGGCUCUACACAGCCUGGUAAAGUGGCUGUGGCUAGACUGCC [A6G A11U G19C C23U],0.01
2,GGCAGGGCUCAACACUGGGUGGCAAAGUGGAUGUGGCUAGACUGCC [A6G A16U C18G C31A],0.08
3,GGCAGCGCGCAACACAGCGUGGCAAACUGGCUUUGGCUAGAAUGCC [A6C U9G G27C G33U C42A],0.06
4,GGCAGGGCUCAACCCAUCGUGGCAAAGUGGCUGUGGCUAGACUGCC [A6G A14C G17U],0.18
5,GGCAGCGCUCAACACAGCGGGGCAAAAUGGUUGUGGCUAGAAUGCC [A6C U20G G27A C31U C42A],0.06
6,GGCAGCGCGCAACACAGCGUGGCAAAGUGGCUGUGGCUAGACUGAC [A6C U9G C45A],0.02
7,GGCAGCGCUCAACACAGCGUGGCAAAGGGGCCGUGACUAGGUUGCC [A6C U28G U32C G36A A41G C42U],0
8,GGCAGCGCGCCACACAGCGUGGCAAAGUUGCUGUGGCAAGACUGCC [A6C U9G A11C G29U U38A],0
9,GGCAGCGCGCAACACGGCAUCGCAAAGUGGCUGUGGCUAGACUGCC [A6C U9G A16G G19A G21C],0.05
10,GGCAGGGAUCAACACAGCGUGGCAAAGUGGCGGUGGCUAGACUGCC [A6G C8A U32G],0.27
11,GGCAGGGCUCCACAAAGCGUGGCAAACUGGUUGUGGCUAGACUGCC [A6G A11C C15A G27C C31U],0.01
12,GGCAGCGCGCAAGACAGCGUGGCAAAGUGGCUGUGGUUAGACUGCC [A6C U9G C13G C37U],0.02
13,GGCAGCGCUCAACACAGCGUGGCAAAGGGGCUCUGUCUAGACUGCC [A6C U28G G33C G36U],0.06
14,GGCAGCGCUCAACACAGCGUGGCAAAGUGGCUGUGGCUAGACAGGC [A6C U43A C45G],0.07
15,GGCAGGGCUCAACGCAGCGUGGCAAAGUUUCUGUGUCUAGACUACC [A6G A14G G29U G30U G36U G44A],0.01
16,GGCAGGGCUCAACACGGCGUGGCACAGUGGCUGUGGCUAGACUGCC [A6G A16G A25C],0.24
17,GGCAGGGCUCAACCCAGCGUGGCAAAGUAGCUGUGGCUCGACUGCC [A6G A14C G29A A39C],0.11
18,GGCAGGGCUCAACACAGCGUGGCGAAGUGGCUGUUGCAAGACUGCC [A6G A24G G35U U38A],0.03
19,GGCAGCGCUCAACACAGCGUGGCAAAGUGGCUGGGACUAGACUGCU [A6C U34G G36A C46U],0.04

row,Variant,self-cleavage
1,GGCAGGGCUCACCACAGCGUGGCAAACUGGCUGUGGCUAGACUGCC [A6G A12C G27C],0.05
2,GGCAGCGCUCAACACAGCGUGGCAAAGUGGCGGUGGCUAGACUGUC [A6C U32G C45U],0.09
3,GGCAGCGCGCAACACAGCGUGGCAAAGUGGCUUUGGAUAGACUGCC [A6C U9G G33U C37A],0.03
4,GGCAGGGCUCAACUCAGCGUGGCAAAGUGUCUGAGGCUAGACUGCC [A6G A14U G30U U34A],0.03
5,GGCAGGGCUCAACACAGCGUGGCAAUGUGGCUGUGGCUAGACUGAC [A6G A26U C45A],0.15
6,GGCAGGGAUCAACACAGCGUGGCAAAGGGGCUGUGGCUAGACUACC [A6G C8A U28G G44A],0.03
7,GGCAGCGCUCAACACAGCGAGGCAAAGUGGCUGUGGCUGGACUGCC [A6C U20A A39G],0.1
8,GGCAGGGCUCAGCACAGCGUGGCAAGGUGGCUGUCGGUAGACUGCC [A6G A12G A26G G35C C37G],0.01
9,GGCAGGGCUCAACACUGCGUCGCAAUGUGGCUGUGGCUAGACUGCC [A6G A16U G21C A26U],0.02
10,GGCAGGGCUCAACGCAGCGUGGCAAAGUGGCGGUGGCUAGCCUGCC [A6G A14G U32G A41C],0
11,GGCAGCGCCCAACACAGCAUGGCAACGUGGCUGUGACUAGACUGCC [A6C U9C G19A A26C G36A],0.06
12,GGCAGGGCUCAUCACAGCGUGGCAAAGUGGCUGUGGCUGGACUGUC [A6G A12U A39G C45U],0
13,GGCAGGGCUCGACACAGCCUGGCUAAGUGGCUGUGGCUAGACUGCC [A6G A11G G19C A24U],0
14,GGCAGGGCUCAACACGGCGUGGCAAAGUUGCUGCGGCUAUAAUGCC [A6G A16G G29U U34C G40U C42A],0.01
15,GGCAGGGCUCGCCACAGCGUGGCAAAGUGGCUGUGUCUAGACUUCC [A6G A11G A12C G36U G44U],0.01
16,GGCAGCGCUCAACACAGCGUGGCAAAGUGGCUGGGGCUAGACUGCA [A6C U34G C46A],0.05
17,GGCAGGGCUCAACACUGCGUGCCAAAUUGUCUGUGGAUAGACUGCC [A6G A16U G22C G27U G30U C37A],0.05
18,GGCAGGGCUCGACACAACGUGGCAAAGUGGCGGUGGCUACACUGCC [A6G A11G G17A U32G G40C],0.01
